Drawing on PubChem BioAssay AID1645887 (National Center for Advancing Translational Sciences (NCATS), 2021), this text covers activation for 79 compounds.

Structures are written as SMILES. Values joined by “and” are separate entries in the source; they are usually repeats but may differ in a detail not shown here. Equal values may be shown once. The whole screen tested about 16,000 compounds, of which about 40 (0.2%) were called active. Inconclusive results (about 1%) are left out. The call rests on the fitted dose curve; in most records, active means well fitted activation curve with a large enough effect; inconclusive means small, poorly fitted or top-dose-only effect, or another doubt; inactive means no such curve, though single readings can be large or run the other way. The list shows a part of the results.
On the % scale 0 is the no-effect control and ±100 the full control effect.

Sequence of UniProt Q8WZA2 (Q8WZA2 whole entry, looked up): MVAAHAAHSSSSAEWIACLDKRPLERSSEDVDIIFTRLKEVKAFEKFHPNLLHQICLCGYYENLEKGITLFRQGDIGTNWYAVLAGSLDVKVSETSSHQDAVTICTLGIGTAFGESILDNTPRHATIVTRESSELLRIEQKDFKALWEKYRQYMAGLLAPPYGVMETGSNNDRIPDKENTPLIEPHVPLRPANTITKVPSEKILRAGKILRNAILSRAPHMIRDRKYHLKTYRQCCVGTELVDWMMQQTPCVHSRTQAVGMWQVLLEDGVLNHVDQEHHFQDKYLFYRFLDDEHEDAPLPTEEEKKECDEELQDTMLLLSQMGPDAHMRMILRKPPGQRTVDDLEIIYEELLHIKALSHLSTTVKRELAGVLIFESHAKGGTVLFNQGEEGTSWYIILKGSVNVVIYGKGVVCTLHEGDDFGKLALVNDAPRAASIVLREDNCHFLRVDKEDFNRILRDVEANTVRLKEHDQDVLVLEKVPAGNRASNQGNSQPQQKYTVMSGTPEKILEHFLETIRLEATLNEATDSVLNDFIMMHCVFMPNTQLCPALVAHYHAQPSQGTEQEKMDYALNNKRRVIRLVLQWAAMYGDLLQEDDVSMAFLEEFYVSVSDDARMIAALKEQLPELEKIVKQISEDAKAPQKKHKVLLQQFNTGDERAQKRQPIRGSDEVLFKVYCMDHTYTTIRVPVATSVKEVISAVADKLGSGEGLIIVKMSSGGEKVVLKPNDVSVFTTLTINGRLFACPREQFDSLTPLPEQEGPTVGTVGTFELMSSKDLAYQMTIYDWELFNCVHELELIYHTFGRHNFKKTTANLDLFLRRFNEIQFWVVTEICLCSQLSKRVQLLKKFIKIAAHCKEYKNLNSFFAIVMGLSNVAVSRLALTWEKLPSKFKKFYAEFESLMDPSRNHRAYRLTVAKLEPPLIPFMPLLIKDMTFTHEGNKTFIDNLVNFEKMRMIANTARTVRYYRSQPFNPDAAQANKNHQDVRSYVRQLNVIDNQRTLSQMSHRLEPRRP

The target in the test is Rap guanine nucleotide exchange factor 4 (Homo sapiens) (UniProt Q8WZA2). Briefly: Validation qHTS for agonist of cAMP-regulated guanine nucleotide exchange factor 4 (EPAC2).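 Further: exchange makes BODIPY-GDP fluorescence drop when released from Rap1B; series mostly up to about 150 µM.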 The conditions noted are these: EPAC2 Rap1B BODIPY-GDP exchange, fluorescence; activation: active compounds read high. The gist of the method:
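Signal normalized against 6.5 mM cAMP as agonist control. Mix of EPAC2 (100 nM), RAP1B-BODIPY-GDP (250 nM) and GDP (50 uM) was read kinetically at 480/540 nm, every 5 min over 30 min, after 5 min room-temperature incubation with compound.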
A general note: In qHTS, concentration-response curves come from the screen itself.
For the compound `CN1CC[C@]23c4c5ccc(O)c4O[C@H]2[C@@H](O)CC[C@H]3[C@H]1C5`, the activation was inactive: 25.7%.

For `COc1cc([C@@H]2c3cc4c(cc3[C@@H](O)[C@H]3COC(=O)[C@H]23)OCO4)cc(OC)c1O`, the activation is inactive: 4.73%.

For `c1ccc2c(c1)Sc1ccccc1N2C[C@@H]1CN2CCC1CC2`, the activation was inactive: 0.111%.

For the compound `CN1CC[C@@]2(CCCN(C(=O)Oc3ccccc3)C2)C1`, the activation was inactive: -40.5%.

For the compound `OC[C@@H](O)[C@H]1O[C@@H]2O[C@@H](C(Cl)(Cl)Cl)O[C@@H]2[C@H]1O`, the activation was inactive: 0.942%.

For the compound `CCCC(C)(COC(N)=O)COC(=O)NC(C)C` (centres undefined), the activation is inactive: -11.8% and inactive: 8.2% and inactive: -41.4%.

For `COc1ccc(CC2NCC(O)C2OC(C)=O)cc1` (centres undefined), the activation was inactive: -0.735%.

For the compound `CCCC1CCCCN1` (centres undefined), the activation is inactive: -30.4%.

On to `CN1C(=O)CC(=O)N(c2ccccc2)c2cc(Cl)ccc21`, for which the activation was inactive: 11.7%.

With `CCC1(C)CC(=O)NC(=O)C1`, the activation was inactive: -41.9%.

Turning to `Cc1cccc(C(C)c2cnc[nH]2)c1C` (centres undefined), the activation was inactive: -11.7%.

Regarding `COc1cc(OC)c(OC)cc1C=O`, the activation is inactive: 14.5% and inactive: -5.57%.

Turning to `O=C(O)[C@@H]1C[C@H]2C[C@@H](CP(=O)(O)O)CC[C@H]2CN1`, the activation is inactive: 0.869%.

On to `COc1cc2c(cc1O)CC1c3c(cc(O)c(OC)c3-2)CCN1C` (centres undefined), for which the activation is inactive: -18.6% and inactive: -1.34%.

`C#CC(C)(O)CC` (centres undefined): the activation was inactive: -4.39%.

As to `C[C@H](NC(=O)[C@@H](N)Cc1ccc(O)cc1)C(=O)NCC(=O)N(C)[C@@H](Cc1ccccc1)C(=O)N[C@H](CO)CCS(C)=O` (some centres undefined), the activation was inactive: -0.423%.

On to `Clc1ccc(C(c2ccc(Cl)cc2)C(Cl)(Cl)Cl)cc1`, for which the activation was inactive: -5.78% and inactive: -16.6%.

Turning to `COC[C@]12CN(C=O)C3C4C(OC)C1[C@@]3(C1CC3(O)C(OC)C(O)C4(OC(C)=O)C1C3OC(=O)c1ccccc1)[C@@H](OC)CC2O` (some centres undefined), the activation is inactive: 4.01%.

Consider `CCC1CN2CCC1CC2C(O)c1ccnc2ccc(OC)cc12` (centres undefined), for which the activation was inactive: -15.6%.

`COc1cc(N)c(Cl)cc1C(=O)NC1CN2CCC1CC2` (centres undefined): the activation is inactive: -11.5%.

`C[C@H]1C(=O)O[C@H]2CCN3CC=C(COC(=O)[C@](C)(O)[C@@]1(C)O)C23` (some centres undefined): the activation was inactive: 6.08%.

Take `CC(=O)OC1C2C(OC(=O)Cc3ccccc3)C(C)CC2(OC(C)=O)C(=O)/C(C)=C/C2C(CC[C@@]13CO3)C2(C)C` (some centres undefined): the activation is inactive: -8.85%.

`OC(c1ccccc1)(c1ccccc1)C1CCNCC1`: the activation was inactive: 6.77%.

For `C[C@]12CCC(=O)C=C1CC[C@@H]1[C@@H]2CC[C@]2(C)C(=O)CC[C@@H]12`, the activation is inactive: 10.5% and inactive: -6.21%.

Consider `CC1=CCCC2C1(C)CCC(C)C2(C)CC/C(C)=C/C[n+]1cn(C)c2c(N)ncnc21` (centres undefined), for which the activation is inactive: -8.02%.

For the compound `COCC#CCN1CCCCC1c1cccnc1` (centres undefined), the activation was inactive: -2.82%.

As for `NC(=O)OCCCc1ccccc1`, the activation was inactive: 7.05%.

For the compound `Nc1c(Cl)c(Cl)c(Cl)c(Cl)c1Cl`, the activation is inactive: 7.68%.

In the case of `COc1ccc(NC(=O)N2CCC3(CC2)CCN(C(=O)Oc2ccccc2)CC3)cc1`, the activation is inactive: -24.5%.

`NC1CCc2cc(O)c(O)cc2C1` (centres undefined): the activation is inactive: -6.59% and inactive: -45.4% and inactive: 0.892%.

`CC1CC(O)[C@]2(O)[C@]13CC(=O)OC[C@@]2(C)[C@@](C)(O)C(=O)C3` (some centres undefined): the activation is inactive: -1.91%.

As for `C[C@]12CCC(=O)C(O)=C1CC[C@@H]1[C@H]3CCC(=O)[C@@]3(C)CC[C@@H]12`, the activation is inactive: -2.61%.

Regarding `CN1CC(CO)=C[C@H]2c3cccc4[nH]cc(c34)C[C@H]21`, the activation is inactive: 3.48%.

Regarding `CN[C@@H]1C[C@H](c2ccc(Cl)c(Cl)c2)c2ccccc21`, the activation is inactive: -29.8%.

On to `C[C@H]1CC[C@]2(NC1)O[C@H]1C[C@H]3[C@@H]4CC[C@H]5C[C@@H](O[C@@H]6O[C@H](CO)[C@H](O[C@@H]7O[C@H](CO)[C@@H](O)[C@H](O[C@@H]8OC[C@@H](O)[C@H](O)[C@H]8O)[C@H]7O[C@@H]7O[C@H](CO)[C@@H](O)[C@H](O)[C@H]7O)[C@H](O)[C@H]6O)CC[C@]5(C)[C@H]4CC[C@]3(C)[C@H]1[C@@H]2C`, for which the activation is inactive: -8.01%.

Turning to `C[N+]1([O-])CCC[C@@H]1c1cccnc1` (some centres undefined), the activation is inactive: -3.18%.

For `O=C1CCO1`, the activation was inactive: -0.0761% and inactive: -2.92%.

In the case of `O=C(CCCN1CCC(n2c(=O)[nH]c3ccccc32)CC1)c1ccc(F)cc1`, the activation is inactive: -18.3%.

For `O=C1C2CCN(CC2)C1(CO)CO`, the activation is inactive: -21.8%.

With `CN1CC(CNC(=O)OCc2ccccc2)CC2c3cccc4c3c(cn4C)CC21` (centres undefined), the activation is inactive: -11.6%.

For the compound `CCC1(CC)C(=O)NC(=O)NC1=O`, the activation was inactive: -12.5%.

For `C[N+]1(C)C2CCC1CC(OC(=O)c1c[nH]c3ccccc13)C2` (centres undefined), the activation was inactive: -46.9%.

Regarding `N#C/C(=C\c1ccc(O)c(O)c1)C(N)=S`, the activation is inactive: -14.9% and inactive: -15.3%.

In the case of `CC(Cc1cccc(C(F)(F)F)c1)NCCCc1ccccc1` (centres undefined), the activation is inactive: -0.603%.

Take `c1ccc2sc(C3(N4CCCCC4)CCCCC3)cc2c1`: the activation was inactive: -41.1% and inactive: -2.98% and inactive: -35.5%.

Regarding `COc1ccc(CCN)cc1`, the activation is inactive: -5.77%.

For `C(=C\c1ccccc1)/CN1CCN(CCOC(c2ccccc2)c2ccccc2)CC1`, the activation was inactive: -12.3%.

For `CC(O)C(C)OC(=O)[C@@H]1C[C@@H]2c3cccc4c3c(cn4C(C)C)C[C@H]2N(C)C1` (some centres undefined), the activation is inactive: 0.0236%.

With `COc1ccc(NC(=O)N2CC3(CCN(C(=O)Oc4ccccc4)CC3)C2)cc1`, the activation is inactive: -3.18%.

With `CCc1cc2c(s1)-n1c(C)nnc1CN=C2c1ccccc1Cl`, the activation is inactive: -29.9%.

In the case of `c1cc(CN2CCC3(CCNCC3)CC2)ccn1`, the activation was inactive: -18.6%.

As for `O=C(NC(=O)c1c(F)cccc1F)Nc1ccc(Cl)c(Oc2ncc(C(F)(F)F)cc2Cl)c1`, the activation was inactive: -4.99%.

For `CC(=O)OC1C2CCC3C1(CC(O)[C@@]1(O)[C@@H](CC(O)C1(C)C)[C@]3(C)O)C[C@@]2(C)O` (some centres undefined), the activation was inactive: 3.7%.

Consider `Ic1cncc(OC[C@@H]2CCN2)c1`, for which the activation was inactive: -15.8%.

On to `COc1ccc(OC)c(C(O)C(C)N)c1` (centres undefined), for which the activation was inactive: -24.4%.

For the compound `N#CC(C#N)=NNc1ccc(OC(F)(F)F)cc1`, the activation is inactive: -54.7%.

Turning to `COC(=O)C1=CO[C@@H](C)[C@@H]2CN3CC[C@]4(C(=O)Nc5c4ccc(OC)c5OC)[C@H]3C[C@H]12`, the activation is inactive: -7.63%.

`CCC(=O)O[C@H]1CC[C@H]2[C@@H]3CCC4=CC(=O)CC[C@]4(C)[C@H]3CC[C@]12C`: the activation is inactive: -7.22%.

`COc1cccc([C@@]2(O)CCCC[C@@H]2CN(C)C)c1`: the activation was inactive: -8.31%.

On to `COC(=O)[C@@H]1[C@H]2CC[C@@H](C[C@H]1OC(=O)c1ccccc1)N2C`, for which the activation is inactive: 2.65%.

With `C[C@]12CCC3C(CC[C@H]4C[C@H](O)CC[C@]34C)C1CC[C@@H]2C(=O)CO` (some centres undefined), the activation was inactive: -13.3%.

For the compound `CNC(=O)N(C)c1nnc(C(C)(C)C)s1`, the activation is inactive: -8.74%.

For `CO[C@]12CC[C@@]3(C[C@@H]1[C@](C)(O)C(C)(C)C)[C@@H]1Cc4ccc(O)c5c4[C@@]3(CCN1CC1CC1)[C@H]2O5`, the activation is inactive: -32.4%.

On to `CN1CC[C@@]2(CCCN(C(=O)c3ccco3)C2)C1`, for which the activation was inactive: -14.5%.

For the compound `C=C1C([C@@H](O)C[C@H](C)C2O[C@@]3(CCCCO3)CC[C@H]2C)OC2CC[C@@]3(CC[C@@H](/C=C/[C@@H](C)C4CC(C)=C[C@]5(O4)O[C@H](C[C@@](C)(O)C(=O)O)CCC5O)O3)OC2[C@@H]1O` (some centres undefined), the activation was inactive: 0.962%.

As to `C=CCN1C[C@H](C)N([C@@H](c2ccccc2)c2ccc(C(=O)N(CC)CC)cc2)C[C@H]1C`, the activation was inactive: -4.87%.

On to `Oc1ccc2c3c1O[C@H]1c4[nH]c5c(c4C[C@@]4(O)[C@@H](C2)N(CC2CC2)CC[C@]314)C[C@]1(O)[C@H]2Cc3ccc(O)c4c3[C@@]1(CCN2CC1CC1)[C@@H]5O4`, for which the activation was inactive: -19.7%.

For `c1csc(CN2CC[C@@]3(CCCNC3)C2)n1`, the activation is inactive: -23.9%.

On to `C[C@@H]1CN(C2CCC(C#N)(c3ccc(F)cc3)CC2)CC[C@]1(C(=O)O)c1ccccc1` (some centres undefined), for which the activation was inactive: -12.1%.

With `Clc1ccc(COC(Cn2ccnc2)c2ccc(Cl)cc2Cl)c(Cl)c1` (centres undefined), the activation was inactive: 7.21% and inactive: -10.1%.

As to `CN1C2CCC1CC(OC(=O)C1CCC(C(=O)OC3CC4CCC(C3)N4C)(c3ccccc3)c3ccccc31)C2` (centres undefined), the activation was inactive: -1.71%.

In the case of `NCC(N)C(=O)c1ccccc1` (centres undefined), the activation was inactive: -16.2%.

In the case of `CC(=O)OC1CC[C@@]2(C)C3CC[C@]4(C)C(=O)CCC4C3CC[C@H]2C1` (some centres undefined), the activation is inactive: -25.6%.

Turning to `c1ccc2sc(SNC3CCCCC3)nc2c1`, the activation was inactive: 0.0022%.

Turning to `O=C(Nc1cccc(F)c1)N1CC[C@@]2(CCCN(C(=O)Oc3ccccc3)C2)C1`, the activation was inactive: -17.4%.

As to `CC(C)(C)[C@]1(O)C[C@@H]2OC(=O)C[C@@]23C(=O)O[C@@H]2OC(=O)[C@H](O)[C@]213`, the activation is inactive: -6.82%.

`CC(C)(C)c1cc(C=C(C#N)C#N)cc(C(C)(C)C)c1O`: the activation is inactive: -29.1% and inactive: -5.45% and inactive: -31.1%.

As for `CC(C)[C@@H]1CN[C@H](C(=O)O)[C@@H]1CC(=O)O`, the activation was inactive: 6.03%.

With `O=[N+]([O-])c1ccc(O[C@@H]2O[C@H](CO)[C@@H](O)[C@H](O)[C@H]2F)c([N+](=O)[O-])c1`, the activation is inactive: -12.3%.
